B1: LINE1-full (parent)
chain: UACGUAGGUGGUUUUCCCCUGAUAGUGCUAAGGGGGCCUGGAAGUUUGGACUGGGCAGAGCUCAACACAGCGUGGCAAAGUGGCUGUGGCUAGACUGCCUCUCUGGAUUCCUCGUCACUCAGCAGGGCAUCUCUGAGAGAAAUGCC

The source gives no read counts; variants with many changes may rest on few reads.

Variants of B1 are the subject of the data set. In words: self-cleavage, relative activity (ratio to wild type); higher = more cleavage; in vitro, sequencing; the parent is a self-cleaving ribozyme.
As for U13C U112C A124G A142G, the self-cleavage came to 0.77.

On to U13C U52A G72A A107G, for which the self-cleavage is 1.21. Turning to U14C A24G A67C C90U, the self-cleavage is 0. U13C U62C A78C U119A A140G: the self-cleavage turned out to be 0.79. In the case of U14C A31G U85A U108C it was 0.71; in that of U14A U87A G106A, 0; in that of U13C G72A G93A U109C A142G, 0.02. In the case of U13C G35A A69C C76U it was 0.02; in that of U14C A30G G32A, 1.84; in that of U14C A43G U45C A77U, 0.78. In the case of U14A A79G U130C it was 1.28; in that of U14A C17U C38U A43G A78G C84U, 0.17; in that of U14C A22G U62C, 0.21. On to U13C U47A A57G U134C, for which the self-cleavage was found to be 1.25. In the case of U13C U45C A50U it was 0.78; in that of U13G U14A U46A A77G G86A U87A G135A, 0.18.

For U14C A50G A65G, the self-cleavage is 0. As to U14C A22U U104C U130C, the self-cleavage stood at 1.93. In the case of U14C A22G A124U A129U it was 1.2.

Consider U14A A50U U108C, for which the self-cleavage is 2. U14C A30G C103U: the self-cleavage worked out at 0.92. Take U13C U47C A142U: the self-cleavage is 1.16.

Take U13G C37U U81C U143C: the self-cleavage came to 0.79. In the case of U13C U45A A121G G125U U130A it was 1.71. In the case of U13C U14C U39A U62C U112C A138G it was 0; in that of U13C U134A A138G, 1.7; in that of U13C G21A U73C, 1.23. In the case of U14A A92G U96C it was 0.24; in that of U13C U29C A79G A124U U130C, 1.02; in that of U13C U45C U47C A136G, 0.86.

As to U13C U96C A136G, the self-cleavage is 0.23. In the case of U13C U20A G75A G114A A121U it was 0.5. For the variant U14A U85A G86U A94G, the self-cleavage was 0.08. As for U13C U96C A107G, the self-cleavage is 0.86. For the variant U13C U62A A67U A69G U112A, the self-cleavage amounted to 0.13. In the case of U13C U102C U115C U132A it was 0; in that of U14A C38U U112A, 0.79. On to U14C A22U U26A, for which the self-cleavage came to 1.14. In the case of U14C A22C U91C U96C A142G it was 0.54.

Take U13C G34U U46C U62A A64G U73C: the self-cleavage came out at 0. In the case of U14C A24G U29C G72A G82A it was 0.72; in that of U13C U20C G33C G86A U109C G144U, 0.07. Consider U13C U26C U45C, for which the self-cleavage is 1.15. As for U13C U26C G82A, the self-cleavage amounted to 1.47. In the case of U13C U115A A136G A141G it was 1.25; in that of U13C G54A A117U C123U, 0.47.

With U13G G83U C99A, the self-cleavage is 0.1. In the case of U13C G34A U52G U62C U112A it was 0.1; in that of U13C U29C U102A, 1.36.

For U13C U47A A59G, the self-cleavage amounted to 0.11. In the case of U13C U26C A140G it was 1.6; in that of U13C U20C G36A U39C U85A, 0.19; in that of U14A U47C G55C U87A, 0.02.

For U13C U45C A77G, the self-cleavage was 1.58. In the case of U13C U52A U87C A142G it was 0.57; in that of U13C U62C U104C U134G, 0. U14A G36C A43G U47C A59G U62C A121U A141G: the self-cleavage was determined as 1.1. In the case of U14C A22G U45C it was 0.92; in that of U13C U14C G32A G49A U102C, 0.72; in that of U14C A22G C90A, 0.04. In the case of U13C U91C C99U U130A it was 0.13; in that of U13C U20C A22G U115C A117U, 1.57. In the case of U13C U109A U112C it was 1.14; in that of U13C U20C A22G G139A, 0.61. On to U14C A24G A138G, for which the self-cleavage is 1. In the case of U13C U91C A129U it was 0.86; in that of U13C U52G A129U U132A, 1.56.

Take U13C U119C A138G: the self-cleavage is 2. In the case of U13C U39A G139A it was 0.53; in that of U14C A57U A69G C76U, 0.18; in that of U13C U45A U112A U115C A121U, 1.12.

Take U13C G60A A69U U102C A140G: the self-cleavage amounted to 0.02. For U13C U23G U39A U91A, the self-cleavage came to 0.71. Take U14A U15A A30G C128U: the self-cleavage was 0.36.

On to U13C U29C U91C U96C, for which the self-cleavage was found to be 0.77. As for U13C G53U U96C U102A, the self-cleavage is 0.2. In the case of U14A A43G U91C A141G it was 0.62; in that of U13C U26C U134C, 0.79. Take U14A C76U A129U: the self-cleavage came to 2.53.

Regarding U13C U14G C66A U134C, the self-cleavage worked out at 0.37. In the case of U13C U100C A107U it was 2. In the case of U14A U26C A79U U143C it was 1.09. In the case of U13G A22G U112C A117G, the self-cleavage amounted to 2.3.

For U13C U102C U132A, the self-cleavage was 1.99. On to U14C A42G G75A U112A, for which the self-cleavage stood at 0.48. In the case of U14C A22G U26A it was 0.71.

In the case of U13C U87C G122A, the self-cleavage was 0.18.

In the case of U14A A92G A117G, the self-cleavage is 0. As for U13C U39C A117U A121G, the self-cleavage was 1.97.

With U14A U73C U130C, the self-cleavage is 0.34. In the case of U13C G40A U47C A65G A77G it was 0.14; in that of U13C U46C G144A, 1.94.

Regarding U13C U26G G34A A140G, the self-cleavage stood at 1.49.

U13G U109C U130C: the self-cleavage was 0. In the case of U13C U108C U115A A138G A140G it was 1.6; in that of U13C U85C U96A A117U A142C, 0.08. Regarding U13C U14C U29C U46C, the self-cleavage is 0.57. In the case of U14C A22U A77G it was 1.27; in that of U14A U73G U130C A138G, 1.65. In the case of U13C U39C U132C, the self-cleavage was determined as 1.15. In the case of U13C G21A U39A G74U A124G U143A it was 0.49. With U14C A43G U130A, the self-cleavage came out at 1.31. In the case of U14A A30U U46A U112C, the self-cleavage stood at 0.86. Turning to U13C U47C G89A, the self-cleavage came out at 0.13. In the case of U14C A22U G54A U87A U115C A117G A140G it was 0.06; in that of U14A A50G A57G, 0.98; in that of U13C U62A A69G, 0.21.

As to U14A U47C A67G A121U, the self-cleavage worked out at 0.77. In the case of U14C A43G U81C it was 0; in that of U13C G53U U73C A107G, 0; in that of U13C U20A U115C A138U, 0.94.

U14C A50G A67G: the self-cleavage is 0.23. In the case of U13C U39C A43U U85A U130C, the self-cleavage was found to be 0.14. In the case of U13C U87G U130C A138G it was 0.42; in that of U14C A50G A67U A141G, 0.11. In the case of U14A U62A A79G it was 0.05; in that of U14C A42U A94G C116U U132C, 0.29; in that of U13C U52C A78G U109C C118U, 0.8. Take U14C A22G A141G: the self-cleavage is 1.1. Take U13C U29A U102C U112C: the self-cleavage was found to be 1.26. As for U13C U85A A92G A124G G126A, the self-cleavage is 0.08. In the case of U13C G122A A129G it was 0.98; in that of U13G U115A A141G, 1.42; in that of U13C U23C U109A A138G, 0.78. For the variant U13G A30U A107G, the self-cleavage came to 0.77. In the case of U14C A57U U130C U132A it was 0.18; in that of U13C U73A U100C, 2.21; in that of U14A A94G A124G, 0.15.

With U14C A42G U87A A117C U143A, the self-cleavage came out at 0.27. For U13C U20C U130C, the self-cleavage turned out to be 1.58.

In the case of U14C A22G G36A A67G, the self-cleavage worked out at 0.81. In the case of U14C A31U A138G it was 0.94. In the case of U13C U23C A129G A142G it was 1.69. In the case of U13C U46C A64G A142G it was 1.31; in that of U14A U73C A77U, 0.54; in that of U13C U26C A94G, 0.26. For the variant U14C A57U A79G U85A A138G, the self-cleavage is 0.14.

Regarding U13C U46C C56G A140G A142U, the self-cleavage stood at 0.1. In the case of U13C G55A U108C it was 0.91. In the case of U13C G34A A141G, the self-cleavage is 1.16.

On to U14A U62C G86A G144A, for which the self-cleavage is 0.09. Regarding U14C A57G A136G, the self-cleavage came to 2.45. In the case of U14A U52A A57G it was 1.55. In the case of U14A C63A U81C it was 0.01; in that of U13C U20A U96G U115C, 0; in that of U13C U15A A69U U112A C128U, 0. With U14C A22G C84G U119C, the self-cleavage came to 0.44.

For the variant U14C A30U A59G A65C U134A, the self-cleavage is 0. As for U14C A43G U45C A138G, the self-cleavage stood at 2.3. In the case of U14C A57U U81A it was 0.1; in that of U13C U14C U130C, 1.46; in that of U13C U15C U102C A107G, 0.89. In the case of U13C G53A A69G U115C A121U it was 0.11; in that of U13C U62C A117G U132C A140G, 0; in that of U14A U26A U52C G125A A140C, 0.18.

Regarding U14C A22U A129C A136G A141G, the self-cleavage was 0.98. In the case of U13C G70A A142G it was 0.11; in that of U14A A43G A92G, 0.09. In the case of U13C G75A U81C it was 0.95; in that of U14A U85A U102C, 0.15; in that of U13C U39A U47C U143C, 1.37.

As to U13C U14C U15C A129U U132C, the self-cleavage was found to be 1.48. In the case of U13C U26G U62C U108C it was 0.12. As for U14A A59G A64G A140G, the self-cleavage worked out at 0.16. As to U14C A31U U62C, the self-cleavage turned out to be 0.09. In the case of U13C U81A A117U it was 1.45; in that of U13C U29C U143C, 0.69.

For the origin of these results see the RNAGym collection of RNA variant scans (doi:10.7554/elife.90254).
